These results are taken from PMC9456277.

By UniProt entry, the sequences of proteins in these tests, tags left out. Residues count along the entry.
UniProt Q61056: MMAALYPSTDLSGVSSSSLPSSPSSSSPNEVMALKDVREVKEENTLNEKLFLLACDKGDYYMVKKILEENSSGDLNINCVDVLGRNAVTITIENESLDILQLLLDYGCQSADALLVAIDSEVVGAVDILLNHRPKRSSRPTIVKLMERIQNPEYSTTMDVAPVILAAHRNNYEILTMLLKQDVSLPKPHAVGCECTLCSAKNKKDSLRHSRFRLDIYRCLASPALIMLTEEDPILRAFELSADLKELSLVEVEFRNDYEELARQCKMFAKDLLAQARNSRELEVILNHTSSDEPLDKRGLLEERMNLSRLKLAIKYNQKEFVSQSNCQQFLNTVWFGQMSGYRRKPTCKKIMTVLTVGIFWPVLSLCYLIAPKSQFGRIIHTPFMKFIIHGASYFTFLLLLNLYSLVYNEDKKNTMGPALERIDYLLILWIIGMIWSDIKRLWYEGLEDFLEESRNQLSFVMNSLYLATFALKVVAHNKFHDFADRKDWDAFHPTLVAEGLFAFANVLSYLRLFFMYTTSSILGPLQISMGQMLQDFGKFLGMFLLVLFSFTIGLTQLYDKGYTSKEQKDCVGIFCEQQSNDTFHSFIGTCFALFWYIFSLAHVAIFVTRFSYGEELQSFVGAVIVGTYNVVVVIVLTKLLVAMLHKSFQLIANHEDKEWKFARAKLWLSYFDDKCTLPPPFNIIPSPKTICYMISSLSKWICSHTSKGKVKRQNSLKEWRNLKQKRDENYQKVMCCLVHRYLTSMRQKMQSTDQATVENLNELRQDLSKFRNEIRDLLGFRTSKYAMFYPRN
UniProt P13595, residues 20-1115: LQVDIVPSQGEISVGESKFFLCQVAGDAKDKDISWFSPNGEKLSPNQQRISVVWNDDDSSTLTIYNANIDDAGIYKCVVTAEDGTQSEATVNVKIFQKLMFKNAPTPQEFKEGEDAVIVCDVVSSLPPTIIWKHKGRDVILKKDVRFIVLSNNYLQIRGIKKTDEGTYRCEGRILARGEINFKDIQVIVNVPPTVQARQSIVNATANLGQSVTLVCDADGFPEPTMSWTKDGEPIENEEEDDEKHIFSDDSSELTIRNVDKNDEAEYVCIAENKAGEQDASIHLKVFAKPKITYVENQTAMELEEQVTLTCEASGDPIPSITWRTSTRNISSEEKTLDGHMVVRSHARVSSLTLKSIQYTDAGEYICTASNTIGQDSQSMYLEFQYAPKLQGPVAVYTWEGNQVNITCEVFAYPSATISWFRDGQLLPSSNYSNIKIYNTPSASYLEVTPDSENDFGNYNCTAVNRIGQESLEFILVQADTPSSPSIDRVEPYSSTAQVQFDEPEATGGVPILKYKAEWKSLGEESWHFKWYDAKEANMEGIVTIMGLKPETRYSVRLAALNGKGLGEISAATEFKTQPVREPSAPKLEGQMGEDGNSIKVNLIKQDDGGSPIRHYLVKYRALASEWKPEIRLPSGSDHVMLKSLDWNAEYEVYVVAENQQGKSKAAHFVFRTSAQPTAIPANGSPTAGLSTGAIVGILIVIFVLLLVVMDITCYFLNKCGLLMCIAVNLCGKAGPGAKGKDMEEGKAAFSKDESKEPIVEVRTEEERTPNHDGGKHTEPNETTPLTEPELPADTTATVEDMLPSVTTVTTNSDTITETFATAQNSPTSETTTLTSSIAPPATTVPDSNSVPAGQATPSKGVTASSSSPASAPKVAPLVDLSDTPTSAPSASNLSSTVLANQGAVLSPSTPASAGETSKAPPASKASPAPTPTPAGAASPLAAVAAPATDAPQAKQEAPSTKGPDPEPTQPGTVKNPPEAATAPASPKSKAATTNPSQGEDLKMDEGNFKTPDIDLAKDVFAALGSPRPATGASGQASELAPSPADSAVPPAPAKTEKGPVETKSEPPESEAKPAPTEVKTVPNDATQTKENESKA

Assay [1] addresses transient receptor potential canonical channel 1 (TRPC1) (mouse (endogenous in mouse brain and neurons)), Q61056. Put plainly: co-IP; detergent extract (1% Nonidet P-40) of young adult mouse brain; IP with TRPC1 antibody H-105, TRPC4/5 antibody H-80, TRPC3/6/7 antibody H-100 or nonimmune Ig on Protein G or A Dynabeads, 2 h at 4 °C; Western blot with NCAM antibodies 5B8, D3 or TRPC3/6/7 antibody H-100. The settings on record: remark: other sources report otherwise. On the technique in general: A western blot detects proteins with antibodies after separation by electrophoresis.

Assay [2] deals with neural cell adhesion molecule (NCAM) (mouse (endogenous in mouse brain and neurons)) (UniProt P13595). Kind of assay: co-IP; brain detergent extracts of wild-type and NCAM-deficient mice; IP with NCAM antibody H28 (extracellular domain); Western blot with TRPC1 E-6, TRPC4 N77/15, TRPC5 N67/15 and TRPC3/6/7 H-100.
The target in assay [3] is transient receptor potential canonical channel 1 (TRPC1) (mouse (endogenous in mouse brain and neurons)) (UniProt Q61056). Kind of assay: co-IP; detergent extract (1% Nonidet P-40) of young adult mouse brain; IP with TRPC1 antibody H-105, TRPC4/5 antibody H-80, TRPC3/6/7 antibody H-100 or nonimmune Ig on Protein G or A Dynabeads, 2 h at 4 °C; Western blot with NCAM antibodies 5B8, D3 or TRPC3/6/7 antibody H-100.

These are yes or no findings as the source states them, for the method shown. In cells and extracts the contact can be indirect.

B1: transient receptor potential canonical channel 3 (TRPC3), Q9QZC1 1-910 (protein)
chain: MSTKVKKCREPARVTLPAPEEEEDGEAEGGESQRRRRGWRGVNGGLEPPCPRAPPSPGPDASSEGSPSRWRTAGMRDKGRRQAVRGPAFMFGARGPSLTAEEERFLDAAEYGNIPVVRKMLEESRTLNVNCVDYMGQNALQLAVGNEHLEVTELLLKKENLARIGDALLLAISKGYVRIVEAILGHPGFAASRRLTLSPCEQELRDDDFYAYDEDGTRFSPDITPIILAAHCHKYEVVHLLLLKGARIERPHDYFCRCSDCAEKQRLDAFSHSRSRINAYKGLASPAYLSLSSEDPVLTALELSNELAKLANIEKEFKNDYRKLSMQCKDFVVGVLDLCRDSEEVEAILNGDLESAEPLERHGHKASLSRVKLAIKYEVKKFVAHPNCQQQLLTIWYENLSGLREQTIAIKCLVVLVVALGLPFLAIGYWIAPCSRLGKILRSPFMKFVAHAASFIIFLGLLVFNASDRFEGITTLPNITVIDYPKQIFRVKTTQFTWTEMLIMVWVLGMMWSECKELWLEGPREYIVQLWNVLDFGMLSIFIAAFTARFLAFLQATKAQQYVDSHVQESDLSEVTLPPEVQYFTYARDKWLPSDPQIISEGLYAIAVVLSFSRIAYILPANESFGPLQISLGRTVKDIFKFMVLFIMVFLAFMIGMFILYSYYLGAKVNPAFTTVEESFKTLFWSIFGLSEVTSVVLKYDHKFIENIGYVLYGIYNVTMVVVLLNMLIAMINSSYQEIEDDSDVEWKFARSKLWLSYFDDGKTLPPPFSLVPSPKSFVYFIMRITNFSKCRRRRLQKDLELGMGNSKSRLNLFTQSNSRVFESHSFNSILNQPTRYQQIMKRLIKRYVLKAQVDKENDEVNEGELKEIKQDISSLRYELLEDKSQATEELAILIHKLSEKLNPSVLRCE
For B1, the binding result in assay [1] was “no binding”.

B2: transient receptor potential canonical channel 3 (TRPC3) (protein, UniProt Q9QZC1 1-910)
chain: MSTKVKKCREPARVTLPAPEEEEDGEAEGGESQRRRRGWRGVNGGLEPPCPRAPPSPGPDASSEGSPSRWRTAGMRDKGRRQAVRGPAFMFGARGPSLTAEEERFLDAAEYGNIPVVRKMLEESRTLNVNCVDYMGQNALQLAVGNEHLEVTELLLKKENLARIGDALLLAISKGYVRIVEAILGHPGFAASRRLTLSPCEQELRDDDFYAYDEDGTRFSPDITPIILAAHCHKYEVVHLLLLKGARIERPHDYFCRCSDCAEKQRLDAFSHSRSRINAYKGLASPAYLSLSSEDPVLTALELSNELAKLANIEKEFKNDYRKLSMQCKDFVVGVLDLCRDSEEVEAILNGDLESAEPLERHGHKASLSRVKLAIKYEVKKFVAHPNCQQQLLTIWYENLSGLREQTIAIKCLVVLVVALGLPFLAIGYWIAPCSRLGKILRSPFMKFVAHAASFIIFLGLLVFNASDRFEGITTLPNITVIDYPKQIFRVKTTQFTWTEMLIMVWVLGMMWSECKELWLEGPREYIVQLWNVLDFGMLSIFIAAFTARFLAFLQATKAQQYVDSHVQESDLSEVTLPPEVQYFTYARDKWLPSDPQIISEGLYAIAVVLSFSRIAYILPANESFGPLQISLGRTVKDIFKFMVLFIMVFLAFMIGMFILYSYYLGAKVNPAFTTVEESFKTLFWSIFGLSEVTSVVLKYDHKFIENIGYVLYGIYNVTMVVVLLNMLIAMINSSYQEIEDDSDVEWKFARSKLWLSYFDDGKTLPPPFSLVPSPKSFVYFIMRITNFSKCRRRRLQKDLELGMGNSKSRLNLFTQSNSRVFESHSFNSILNQPTRYQQIMKRLIKRYVLKAQVDKENDEVNEGELKEIKQDISSLRYELLEDKSQATEELAILIHKLSEKLNPSVLRCE
On to B2, for which the binding result in assay [2] is “no binding”.

B3: transient receptor potential canonical channel 6 (TRPC6) (protein, UniProt Q61143 1-930)
chain: MSQSPRFVTRRGGSLKAAPGAGTRRNESQDYLLMDELGDDGYPQLPLPPYGYYPSFRGNENRLTHRRQTILREKGRRLANRGPAYMFNDHSTSLSIEEERFLDAAEYGNIPVVRKMLEECHSLNVNCVDYMGQNALQLAVANEHLEITELLLKKENLSRVGDALLLAISKGYVRIVEAILNHPAFAEGKRLATSPSQSELQQDDFYAYDEDGTRFSHDVTPIILAAHCQEYEIVHTLLRKGARIERPHDYFCKCTECSQKQKHDSFSHSRSRINAYKGLASPAYLSLSSEDPVMTALELSNELAVLANIEKEFKNDYRKLSMQCKDFVVGLLDLCRNTEEVEAILNGDAETRQPGDFGRPNLSRLKLAIKYEVKKFVAHPNCQQQLLSIWYENLSGLRQQTMAVKFLVVLAVAIGLPFLALIYWCAPCSKMGKILRGPFMKFVAHAASFTIFLGLLVMNAADRFEGTKLLPNETSTDNARQLFRMKTSCFSWMEMLIISWVIGMIWAECKEIWTQGPKEYLFELWNMLDFGMLAIFAASFIARFMAFWHASKAQSIIDANDTLKDLTKVTLGDNVKYYNLARIKWDPTDPQIISEGLYAIAVVLSFSRIAYILPANESFGPLQISLGRTVKDIFKFMVIFIMVFVAFMIGMFNLYSYYIGAKQNEAFTTVEESFKTLFWAIFGLSEVKSVVINYNHKFIENIGYVLYGVYNVTMVIVLLNMLIAMINSSFQEIEDDADVEWKFARAKLWFSYFEEGRTLPVPFNLVPSPKSLLYLLLKFKKWMCELIQGQKQGFQEDAEMNKRNEEKKFGISGSHEDLSKFSLDKNQLAHNKQSSTRSSEDYHLNSFSNPPRQYQKIMKRLIKRYVLQAQIDKESDEVNEGELKEIKQDISSLRYELLEEKSQNTEDLAELIRKLGERLSLEPKLEESRR
As to B3, the binding result in assay [2] and in assay [3] was “no binding” each time.

B4: transient receptor potential canonical channel 7 (TRPC7) (protein, UniProt Q9WVC5 1-862)
chain: MLGSNTFKNMQRRHTTLREKGRRQAIRGPAYMFNEKGTSLTPEEERFLDSAEYGNIPVVRKMLEESKTLNFNCVDYMGQNALQLAVGNEHLEVTELLLKKENLARVGDALLLAISKGYVRIVEAILSHPAFAQGQRLTLSPLEQELRDDDFYAYDEDGTRFSHDITPIILAAHCQEYEIVHILLLKGARIERPHDYFCKCNECTEKQRKDSFSHSRSRMNAYKGLASAAYLSLSSEDPVLTALELSNELARLANIETEFKNDYRKLSMQCKDFVVGVLDLCRDTEEVEAILNGDVNLQVWSDHHRPSLSRIKLAIKYEVKKFVAHPNCQQQLLTMWYENLSGLRQQSIAVKFLAVFGVSIGLPFLAIAYWIAPCSKLGQTLRSPFMKFVAHAVSFTIFLGLLVVNASDRFEGVKTLPNETFTDYPKQIFRVKTTQFSWTEMLIMKWVLGMIWSECKEIWEEGPREYVLHLWNLLDFGMLSIFVASFTARFMAFLKASEAQLYVDQYVQDVTLHNVSLPPEVAYFTYARDKWWPSDPQIISEGLYAIAVVLSFSRIAYILPANESFGPLQISLGRTVKDIFKFMVIFIMVFVAFMIGMFNLYSYYRGAKYNPAFTTVEESFKTLFWSIFGLSEVISVVLKYDHKFIENIGYVLYGVYNVTMVVVLLNMLIAMINNSYQEIEEDADVEWKFARAKLWLSYFDEGRTLPAPFNLVPSPKSFYYLIMRIKMCLIELCQSKAKRCENDLEMGMLNSKFRKTRYQAGMRNSENLTANSTFSKPTRYQKIMKRLIKRYVLKAQVDRENDEVNEGELKEIKQDISSLRYELLEEKSQATGELADLIQQLSEKFGKNLNKDHLRVNQGKDI
Turning to B4, the binding entry in assay [2] and in assay [3] was “no binding” throughout.
